Measured values published in a compilation of properties of binary mixtures (doi:10.1109/gcce.2014.7031273).
The densities may have been worked out from excess volumes.

Assay: xn = mol fraction of the nth substance listed
Conditions: 293.15 K, 100 kPa

Compound	mass density (x2 = 0) [kg/m3]	mass density (x1 = 0.0291) [kg/m3]	mass density (x1 = 0.0405) [kg/m3]	mass density (x1 = 0.0513) [kg/m3]	mass density (x1 = 0.0733) [kg/m3]	mass density (x1 = 0.1157) [kg/m3]	mass density (x1 = 0.2104) [kg/m3]	mass density (x1 = 0.2607) [kg/m3]	mass density (x1 = 0.4929) [kg/m3]	mass density (x1 = 0.5903) [kg/m3]	mass density (x1 = 0.7305) [kg/m3]
CCO + CC(=O)[O-].Cn1cc[n+](C)c1	789.5	–	–	–	–	–	–	–	–	–	–
CC(=O)[O-].Cn1cc[n+](C)c1 + CCO	–	814.7	823.6	832.1	848.3	877.3	931.8	956.1	1037.9	1062	1089.9
